This note sets out measurements from the RNAGym collection of RNA variant scans (doi:10.1093/nar/gkz1192).

To fix the notation:
B1: CPEB3 Ribozyme (parent)
chain: UAACAGGGGGCCACAGCAGAAGCGUUCACGUCGCAGCCCCUGUCAGAUUCUGGUGAAUCUGCGAAUUCUGCUGUAUAUCUC

Read counts are not given, so values of variants with three or more changes are uncertain.

In this data set the parent is B1. The experiment in a line: self-cleavage, relative activity (ratio to wild type); higher = more cleavage; in vitro, sequencing. Summed up:
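Libraries of CPEB3 self-cleaving ribozyme mutants came from rounds of error-prone PCR and carried barcodes, which DNA sequencing matched to variants. In vitro transcription used T7 RNA polymerase at 37°C for 5 hours, with a further 15 min in DNase I before EDTA stopped the reaction; the ribozymes cleaved during both steps. The RNA was reverse transcribed with template switching and sequenced on Illumina. Relative activity is the cleaved/total read fraction of a variant divided by that of the unmutated ribozyme, averaged over three batches with at least 5 reads.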
On to UAACAGGGGGCCGCAGCAGAAGCGUUCACGUCGCAGCCCCUGUCAGAUUAUGGUGAAUCUGCGAACUCCGCUGUAUAUCUC, for which the self-cleavage was determined as 0.19. As for UAACAGGGGGCCGCAGCAGAAGCAUUCACGUCGCAGCCCCUGUCAGAUUCUGGAGAAUCUGCGGAUUCUGCUGUAUAUCUC, the figure is 0.09; as for UAACAGGGGGCCGCAGCAGAAGCGUUCACGUCACGGCCCCUGUCAGAUUCUGGUGAAUCUGCGAAUUCUGCUCUAUACCUC, 0.33. Consider UAACAGGGGGCCGCAGCAGAACCGUUCACGUCGCAGCCCCUGUCAGAUACUGGUGAAUCUGCGUAUUCUGCUGUAUAUCUC, for which the self-cleavage came to 0.05. For UAACAGGGGGCCGCAGCAGAAGCGUUCACGUCGCAACCCCUGUCAGACUCUGGUGAAUCUGCGAAUUCUGCUGUAUACCUC, the self-cleavage came to 0.1. For UAACAGGGGGCCGCAGCAGAAGCGUUCACAUCGCAGCCCCCGUCAGAUUCUGGUGAGUCUGCGAAUUCUACUGUAUAUCUC, the self-cleavage was 0.09. Turning to UAACAGGGGGCCGCACCAGAAGCGUUCACGUCGCAGCCCCUGUCAGAUUCUGGUGAAUCUGCGGAUUCUGCUGUAUAUCUC, the self-cleavage was 0.09. Regarding UAACAGGGGGCCGCAGCAGAACCGUUCACGUCGCAGCCCCUGUCAGUUUCUGGUGAAUCUGCGGAUUCUGCUGUAUAUCUC, the self-cleavage was 0.13. In the case of UAACAGGGGGCCGCAGCAGAAGCAUUCACGCCGCAGCCCCUGCCAGACUCUGGUGAAUCUGCGAAUUCUGCUAUAUAUCUC, the self-cleavage came out at 0.03. On to UAACAGGGGGCCGCAGCAGAAACGUUCACGUCGCAGCCCCUGUCAGAUUCUGGUGAAUCUGCGGAUUCUGCUGUAUAUCUC, for which the self-cleavage amounted to 0.18. In the case of UAACAGGGGGCCGCAGCAGAAGCGUUCACGUCGCAGCCCCUGUCAAAUCCUGGUGAAUCUGCGAAUUCUGCUGUAUAUCUC, the self-cleavage worked out at 0.14. As to UAACAGGGGGCCGCAGCAGAAACGUACACGUCGCAGCCCCUGUCAGAUUCUGGUGAAUCUGCGAAUUCUGCUGUAUAUCUC, the self-cleavage is 0.25. As for UAACAGGGGGCCGCAGCAGAAGCGUUCACGUCGCAGCCCCUGUCAUAUUCUGGUGAAUCAGCGGAUUCUGCUGUAUAUCUC, the self-cleavage came out at 0.1.

Turning to UAACAGGGGGCCGCAGCAGAAGCUUUCACGUCGCAGCCCCUGUCAGAUUCUGGUGAAACUGCGGAUUCUGCUGUAUAUCUC, the self-cleavage was 0.05. As for UAACAGGGGGCCGCAGCAGAAGCGAUCACGUCCCAGCCCCUGUCAGAUUCUGGUGAAUCUGCGAAUUCUGCUGUAUAUCUC, the self-cleavage was 0.08. Regarding UAACAGGGGGCCGCAACAGAAGCGUUCGCGUCGCAGCCCCUGUCAGAUUCUGGUGAAUCUGCGAAUUCUGCUGUAUAUCUC, the self-cleavage amounted to 0.02.

With UAACAGGGGGCCGCAGCAUUAGCGUUCACGUCGCAGCCCCUGCCAGAUUCUGGUGAAUCUGCGAAUUCUGCUGUAUAUCUC, the self-cleavage is 0.07. The same measure for UAACAGGGGGCCGCAGCAGAAGCGCUCUCGUUGCUGCCCCUGUCAGAUUCUGGUGAAUCUGCGAAUUCUGCUGUAUAUCUC: 0.41; for UAACAGGGGGCCGCAGCAGAAGCACUCACGUCGCAGCCCCCGUCAGAUUCUGGUGAAUCUGCGAAUUCUGCUGUAUAUCUC: 0.21; for UAACAGGGGGCCGCAGCAGAAGCGUUCACUCCGCAGCCCCUGUCAGAUUCUGGUGAAUCUGCGAAUUCUGCAGUAUAUCUC: 0.09.

Consider UAACAGGGGGCCGCAGCAGAAGCAUUCACGUCGCAGCCCCUGUCAGAUUCCGGUGAAUCUGCGAAUUCUGCCGUAUAUCUC, for which the self-cleavage stood at 0.03. On to UAACAGGGGGCCGCAGCAAAAGCGUUCACGUCGCAGCCCCUGCCAGAUUCUGGUGAAUCUGCGAAUUCUGCUGUAUAUCUC, for which the self-cleavage turned out to be 0.1. As for UAACAGGGGGCCGCAGCAGAAGCGUUCACGUCGCAGCCCCUGUCACAUUCUGGUGAAUCCGCGAAUGCUGCUGUAUAUCUC, the self-cleavage amounted to 0.33.

Take UAACAGGGGGCCGCAGCAGAAGCGUUCACGUCGCAGCCCCUGUCAGAUUCUGGUGAAUUAGCGAAUCCUGCUGUAUAUCUC: the self-cleavage came to 0.12. For the variant UAACAGGGGGCCGCAGCAGAAGCCCUCACGUCGCAACCCCUGUCAGAUUCUGGUGAAUCUGCGAAUACUGCUGUAUAUCUC, the self-cleavage is 0.08. Take UAACAGGGGGCCGCAGCAUAAGCGUUCACGUCGCAGCCCCUGUCAGAUUCUGGUGAAUCUGCGAAUUCUGCUGUACAUCUC: the self-cleavage is 0.23. The same measure for UAACAGGGGGCCGCAGCAGAAGCGUUCACGUCCCAGCCCCUGUCAGAUUCUGGUGAAUCUGCGAAUCCUGCUGUAUAUCUC: 0.38; for UAACAGGGGGCCGCAGCAGAAGCAUUCAUGUCGCUGCCCCUGUCAGAUUCUGGUGAGUCUACGAGUUCUGCUGUAUAUCUC: 0.06. On to UAACAGGGGGCCGCAGCAGAAGCGAUCACGGCGCAGCCCCUGUCAGAUUCUGGUGAAUCUGCGAAUUCUGCUGUAUAUCUC, for which the self-cleavage amounted to 0.31. UAACAGGGGGCCGCAGCAGAAGCGUUCACGUCGCAGCCCCUGUAAGAUUCUGGUGUAUCUGCGAAUUCUGCUGUAUAUCUC: the self-cleavage was 0.11. Turning to UAACAGGGGGCCGCAACGGAAGCGUUCACGUCGCAGCCCCUGUCAGAUUCUGGUGAAUCUGCGAAUUCUGCUGUAUAUCUC, the self-cleavage is 0.45. For the variant UAACAGGGGGCCGCAUCAGAAGCGCUCACGUCGCAGCCCCAGUCGGAUUCUGGUGAAUCUGCGAAUUCUGCUGUAUAUCUC, the self-cleavage worked out at 0.2. As for UAACAGGGGGCCGCAGCAGAACCGUUCACGUCGCAGCCCCUGUCAGAUUCUGGUGAAACUGCGAAUUCUGCUGUAUAUCUC, the self-cleavage was determined as 0.18. As for UAACAGGGGGCCGCAGCAGAAGCGACCACGUCGCAGCCCCUGUCGGAUUCUGGUGGAUCUGCGAAUUCUGCUGUAUAUCUC, the self-cleavage stood at 0.08.
